From paper PMC4336329 (PLoS ONE, 2015)
Out of some 310,000 compounds screened, about 14,000 (4.5%) showed an effect of 50% or more. Effects have a minus sign here. The list shows a part of the results.

Molecular target: human ether-à-go-go-related gene (hERG) potassium channel (human, UniProt Q12809)
Test: primary screen, population patch clamp on CHO cells stably expressing hERG
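Further: peak tail current of the secondary pulse compared with the same well before compound.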

Chain of human ether-à-go-go-related gene (hERG) potassium channel (Q12809 whole entry, looked up): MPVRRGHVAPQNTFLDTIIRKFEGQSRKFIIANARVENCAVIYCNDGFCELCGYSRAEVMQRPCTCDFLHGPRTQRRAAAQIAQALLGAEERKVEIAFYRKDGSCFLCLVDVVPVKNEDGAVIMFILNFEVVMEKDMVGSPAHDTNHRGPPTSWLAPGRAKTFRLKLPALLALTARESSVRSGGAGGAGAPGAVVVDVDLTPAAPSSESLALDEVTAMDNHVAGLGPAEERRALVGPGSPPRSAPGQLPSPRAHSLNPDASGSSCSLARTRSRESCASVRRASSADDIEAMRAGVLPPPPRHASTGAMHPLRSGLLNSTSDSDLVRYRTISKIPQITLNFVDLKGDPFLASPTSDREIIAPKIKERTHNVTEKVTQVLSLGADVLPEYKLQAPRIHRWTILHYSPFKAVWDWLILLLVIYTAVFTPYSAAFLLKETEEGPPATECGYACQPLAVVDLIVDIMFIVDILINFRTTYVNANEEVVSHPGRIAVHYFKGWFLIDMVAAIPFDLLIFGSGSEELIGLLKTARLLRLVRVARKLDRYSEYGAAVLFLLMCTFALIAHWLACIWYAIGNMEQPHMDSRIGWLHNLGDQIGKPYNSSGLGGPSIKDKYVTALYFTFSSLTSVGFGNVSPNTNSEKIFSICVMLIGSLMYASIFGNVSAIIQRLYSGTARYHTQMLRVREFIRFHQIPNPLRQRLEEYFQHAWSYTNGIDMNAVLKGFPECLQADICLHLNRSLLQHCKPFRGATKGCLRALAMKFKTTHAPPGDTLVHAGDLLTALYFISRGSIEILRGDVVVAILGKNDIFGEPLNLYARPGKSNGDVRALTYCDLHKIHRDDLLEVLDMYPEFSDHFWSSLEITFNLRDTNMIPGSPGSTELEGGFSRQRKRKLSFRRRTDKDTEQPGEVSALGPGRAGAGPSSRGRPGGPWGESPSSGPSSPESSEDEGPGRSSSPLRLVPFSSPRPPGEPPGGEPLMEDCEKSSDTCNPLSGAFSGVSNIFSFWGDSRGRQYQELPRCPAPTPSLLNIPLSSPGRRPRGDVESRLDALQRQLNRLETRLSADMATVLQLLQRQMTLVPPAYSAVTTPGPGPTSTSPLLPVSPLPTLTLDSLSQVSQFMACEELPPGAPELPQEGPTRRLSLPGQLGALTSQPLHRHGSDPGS

Compound	hERG current change (%, negative = inhibition) at 10uM [%]
Nc1c(C(=O)O)ccc2c1C(=O)c1ccccc1C2=O	20.5
Cc1ccc(CNC(=O)c2cc(-c3ccccc3)nn2Cc2cc(C)no2)cc1	-12.3
Cn1c(SCC(=O)N2CCCCC2)nc2cccnc21	22.2
COc1ccc(CN2C(=O)c3c(c(C)n(C)c3C)C2C(=O)NC2CCC(C)CC2)cc1 (stereo not shown)	-28.7
Cc1ccc(S(=O)(=O)N(CCC(=O)O)c2ccccc2)cc1	-10.5
NC1=C([N+](=O)[O-])C(c2ccccc2)C2=C(CCCC2=O)O1 (stereo not shown)	35.2
O=C1CC(c2ccc(S(=O)(=O)NCc3ccncc3)cc2)CN1 (stereo not shown)	-12.9
COc1nc(NC(C)C)nc(N(C#N)CN2C(=O)c3ccccc3S2(=O)=O)n1	-9.97
O=C(c1cccc(C(F)(F)F)c1)C1CCCN(Cc2cccn2-c2ncccn2)C1 (stereo not shown)	-95.7
Cc1cccc(NC(=O)CCN2CCCC(C)C2)c1.Cl (stereo not shown)	1.45
CC1CN(C(=O)CCC(=O)NCc2ccccc2)c2ccccc2O1 (stereo not shown)	0.256
CCn1c(SC(C)C(=O)O)nnc1-c1cccnc1 (stereo not shown)	-0.674
c1ccc2nc3ccccc3nc2c1	6.03
CCN(CC)CCn1c(=S)[nH]c2cc(C(=O)N3CC=C(c4ccccc4)CC3)ccc2c1=O	-31
CCCN1C(=O)/C(=C\C=C2/Sc3ccccc3N2CCO)SC1=S	13.3
CCOC(=O)C(C(=O)OCC)C(Nc1ccccc1)c1ccccc1 (stereo not shown)	7.3
CC(=O)Nc1cc(-c2ccccc2)ccc1O	12.6
COc1cc(CN2CCCC(N3CCN(c4ccccc4C)CC3)C2)ccc1O (stereo not shown)	-27
CCOc1cccnc1Sc1ccccc1	-1.39
COc1cc(C(=O)NCCC(=O)N2CCC3(CC2)NCCc2[nH]cnc23)cc(OC)c1OC	3.36
Cn1c(CC(=O)Nc2ccccc2F)nnc1SCC(=O)NC1CCCC1	11
CC(C)(C)c1ccc(C(=O)O/N=C(\N)c2ccccc2)cc1	21.1
CCOC(=O)N1CCC(NC(=O)c2cccc3c2C(=O)N(c2ccc(OC)cc2)C3)CC1	-58.3
O=C(Cc1nc(=O)c2ccccc2s1)Nc1ccccc1	18.6
CC(=O)N(Cc1cccs1)Cc1cc2cc(C)c(C)cc2nc1Cl	-11.6
